Data: PubChem BioAssay AID588795 (National Center for Advancing Translational Sciences (NCATS), 2011)
“And” between values parts separate entries of the source, which are not always exact repeats. Identical values can stand only once. About 1,400 (0.36%) of roughly 390,000 compounds were called active. This list was built around the results that the source calls inconclusive (neither active nor inactive); the mix of calls is not that of the screen. Calls follow the shape of the dose curve; as a rule, active = well fitted inhibition curve with a large enough effect; inconclusive = small, poorly fitted or top-dose-only effect; inactive = no such curve, though single readings can be large or run the other way. A potency beside an inconclusive call is a rough fit, not a confirmed value.

Molecular target: Flap endonuclease 1 (Homo sapiens) (UniProt P39748)
UniProt P39748, sequence (P39748 whole entry, looked up): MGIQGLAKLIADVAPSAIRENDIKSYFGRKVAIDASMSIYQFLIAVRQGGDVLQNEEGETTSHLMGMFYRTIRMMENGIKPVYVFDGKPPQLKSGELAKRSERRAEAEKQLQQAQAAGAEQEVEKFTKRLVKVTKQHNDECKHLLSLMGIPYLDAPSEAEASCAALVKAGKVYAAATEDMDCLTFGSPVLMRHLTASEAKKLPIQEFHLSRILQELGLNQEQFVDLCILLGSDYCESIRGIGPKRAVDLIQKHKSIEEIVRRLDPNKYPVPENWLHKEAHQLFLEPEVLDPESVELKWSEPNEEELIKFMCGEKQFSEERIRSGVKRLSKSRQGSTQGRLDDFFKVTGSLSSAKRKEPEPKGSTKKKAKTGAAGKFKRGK
Test: qHTS Assay for the Inhibitors of Human Flap endonuclease 1 (FEN1). Also: nearly all actives have a fitted effect of over 65% in size.
Details: Recombinant FEN1 flap cleavage, fluorescence, 15 min; series mostly up to 114 µM; activity change, negative = inhibition: at the top concentration
Procedure, shortened: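 Reaction started by adding substrate (50 nM final) to 10 nM enzyme after 15 min room-temperature compound preincubation. Reads at 0 and 15 min, with data normalized and fitted to a four-parameter Hill equation.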
% is scaled to controls: 0 for no effect and ±100 for the full control effect; potency is read from the fitted curve at half-maximal effect; tags tell the direction and shape of the fitted curve.

SMILES	Potency	activity change, negative = inhibition
S=C(NCc1ccccc1)NC1CCSc2ccccc21 (stereo not given)	inconclusive: 79.4 µM [inhibitor, partial curve, poor fit]	–
CN(C)c1ccc(/C=C/c2ccc3c4ccccc4ccc3[n+]2-c2ccccc2)cc1	active: 12.6 µM and active: 8.91 µM	–
Cc1ccc2c(c1)[nH]c1c(N3CCN(Cc4ccccc4)CC3)ncnc12	inconclusive: 79.4 µM [inhibitor, partial curve]	–
O=C(c1cc2ccccc2o1)N(Cc1ccco1)Cc1cccs1	inconclusive: 89.1 µM [inhibitor, partial curve, poor fit]	–
COc1ccc(N=C2S/C(=C\c3ccc(OC(C)C(=O)O)c(OC)c3)C(=O)N2CCc2c[nH]c3ccccc23)cc1 (stereo not given)	inconclusive: 100 µM [inhibitor, partial curve, poor fit]	–
CN(c1cccc(NC(=O)CN(c2ccc(C34CC5CC(CC(C5)C3)C4)cc2)S(C)(=O)=O)c1)S(C)(=O)=O	inconclusive: 79.4 µM [inhibitor, partial curve, poor fit]	–
O=S(=O)(Nc1cccnc1)c1cccc2ccccc12	–	inactive: 13.1%
Nc1c2c(=O)[nH]c(O)cc2nn1-c1ccccc1	inconclusive: 39.8 µM [inhibitor, partial curve, poor fit]	–
COc1ccc(C)cc1Nc1n[n+](-c2ccccc2)c(-c2ccc(N(C)C)cc2)s1	inconclusive: 50.1 µM [inhibitor, partial curve, poor fit]	–
COc1ccc(-c2cn3cccnc3n2)cc1NC(=O)c1ccc(Br)o1	inconclusive: 50.1 µM [inhibitor, partial curve, poor fit]	–
Cc1cnc2c3c(cc(Cl)c2c1)-c1ccccc1S(=O)(=O)N3	inconclusive: 50.1 µM [inhibitor, partial curve]	–
NC(N)=N/N=C/c1ccc(OCc2ccccc2)c(OCc2ccccc2)c1	inconclusive: 89.1 µM [inhibitor, single point]	–
CCOC(=O)C(=O)N(Nc1ccc(C)cc1)c1ccc(C)cc1	inconclusive: 79.4 µM [inhibitor, partial curve, poor fit]	–
O=C(CNc1cc(S(=O)(=O)N2CCOCC2)ccc1N1CCCC1)Nc1ccc(Cl)cc1	–	inactive: 5.69%
Cc1ccc(Cl)cc1N1CCN(C(=O)Cc2c(C(=O)O)[nH]c3ccccc23)CC1	–	inactive: -12.2%
Cc1ccsc1CN(C(=O)c1ccc(OCC(C)C)cc1)C1CCS(=O)(=O)C1 (stereo not given)	–	inactive: 3.69%
O=[N+]([O-])c1c(NCCCO)cc(SCc2ccco2)c2nonc12	inconclusive: 28.2 µM [inhibitor, partial curve]	–
COc1ccc(-c2nc(NC(=O)c3[nH]c(C)c(C(C)=O)c3C)sc2C)cc1	inconclusive: 79.4 µM [inhibitor, partial curve, poor fit]	–
Cc1cc(N/N=C/c2ccncc2)nc2ccccc12	inconclusive: 39.8 µM [inhibitor, partial curve, poor fit]	–
COc1ccc(C2=C(C)C(N3CCC(C(=O)Nc4ccc(F)cc4C)CC3)=NS2(=O)=O)cc1	–	inactive: 9.32%
CCNc1nc(N2CCCN(C)CC2)nc2cc(OC)c(OC)cc12	inconclusive: 31.6 µM [inhibitor, partial curve, poor fit]	–
O=C(Cc1ccc(S(=O)(=O)N2CCOCC2)s1)Nc1ccccc1Br	–	inactive: -15.4%

SMILES	Potency	activity change, negative = inhibition
O=C(Cc1ccc(OCCCCc2ccccc2)cc1)NO	inconclusive: 79.4 µM [inhibitor, partial curve, poor fit]	–
CC(=O)Oc1ccc2nc(-c3cccs3)oc(=O)c2c1	–	inactive: -4.6%
CCSc1nnc(NC(=O)c2cc(=O)c3cc(C)c(C)cc3o2)s1	inconclusive: 39.8 µM [inhibitor, single point]	–
Cn1nc(-c2ccc(Cl)cc2)c2cc(C(=O)NCc3ccco3)sc21	inconclusive: 70.8 µM [inhibitor, partial curve, poor fit]	–
Cc1nc2ccccc2c2oc(C(=O)NCCN3CCCCC3C)cc12 (stereo not given)	inconclusive: 25.1 µM [inhibitor, full curve]	–
COc1cc(/C=C/c2cc(C(=O)O)c3ccccc3n2)cc(OC)c1O	inconclusive: 100 µM [inhibitor, single point]	–
COc1ccc(/C=C2\CCn3c2nc2ccccc2c3=O)cc1OC	inconclusive: 50.1 µM [inhibitor, partial curve, poor fit]	–
COc1cccc(NS(=O)(=O)c2ccc3c(c2)CCCN3C(C)=O)c1	–	inactive: -10.1%
COc1cc2[nH]c(Cl)c([N+](=O)[O-])c2cc1OC	inconclusive: 50.1 µM [inhibitor, partial curve, poor fit]	–
Cc1cc(C(=O)Nn2c(C3CCCCC3)nc3ccccc3c2=O)ccc1[N+](=O)[O-]	–	inactive: -14.3%
CC1=C(C)CS(=O)N(S(=O)(=O)c2ccccc2)C1 (stereo not given)	inconclusive: 89.1 µM [inhibitor, partial curve, poor fit]	–
CCOc1cccc(/C=C/c2ccc3ccccc3n2)c1OC(C)=O	inconclusive: 79.4 µM [inhibitor, partial curve, poor fit]	–
O=c1c(OC2OC(CO)C(O)C(O)C2OC2OC(CO)C(O)C(O)C2O)c(-c2ccc(O)cc2)oc2cc(O)cc(O)c12 (stereo not given)	inconclusive: 39.8 µM [inhibitor, partial curve]	–
CC(C)OCCCNc1ncnc2c1[nH]c1ccc(F)cc12	inconclusive: 50.1 µM [inhibitor, partial curve, poor fit]	–
Cc1cc(N2C(=O)C=CC2=O)c([N+](=O)[O-])cc1C	inconclusive: 89.1 µM [inhibitor, single point]	–
COCCN=c1scc(-c2ccco2)n1/N=C/c1ccc(O)c(O)c1O	active: 35.5 µM	–
C[C@@H]1CC=C[C@H]2[C@H]1C(=O)N(Cc1ccccc1)[C@H]2c1ccc2ccccc2c1	inconclusive: 89.1 µM [inhibitor, partial curve, poor fit]	–
Cc1cccc(OCCCCn2c(C3CC(=O)N(c4ccccc4Cl)C3)nc3ccccc32)c1 (stereo not given)	inconclusive: 39.8 µM [inhibitor, partial curve, poor fit]	–
CCOc1ccc(-c2cnc(NCc3ccc(C(F)(F)F)cc3)n2C)cc1	inconclusive: 35.5 µM [inhibitor, partial curve, poor fit]	–
O=C(O)c1cc2c(o1)CCC/C2=N\O	–	inactive: 0.448%
c1cc2[nH]snc2c2nc(C3CC3)nc12	inconclusive: 89.1 µM [inhibitor, partial curve, poor fit]	–
Cc1onc(-c2ccccc2Cl)c1C(=O)NC(=S)Nc1ccc(C(C)C)cc1	inconclusive: 12.6 µM [inhibitor, partial curve, poor fit]	–

SMILES	Potency	activity change, negative = inhibition
COc1ccc(C2CC(=O)C(C=NCCN3CCN(C(=S)Nc4ccccc4)CC3)=C(O)C2)cc1 (stereo not given)	–	inactive: -3.07%
NS(=O)(=O)c1ccc(N=C2C(=O)Nc3ccccc32)cc1	–	inactive: 0.308%
O=C(CSc1n[nH]c(=O)[nH]c1=O)Nc1ccc2c(c1)C(=O)c1ccccc1C2=O	active: 28.2 µM	–
Cc1nc(C)c(-c2ccc(SCC(=O)Nc3ccc(Cl)c(Cl)c3)nn2)s1	–	inactive: -2.14%
Cc1cc(C)c2nc(-c3ccccn3)cc(C(=O)Nc3ccc(S(=O)(=O)Nc4onc(C)c4C)cc3)c2c1	inconclusive: 89.1 µM [inhibitor, single point]	–
CCOC(=O)c1c(C(F)(F)C(F)(F)C(F)(F)C(F)(F)F)n[nH]c1C	inconclusive: 11.2 µM [inhibitor, partial curve, poor fit]	–
CN(c1ccccc1)S(=O)(=O)c1cccc(NC(=O)c2cncc(Br)c2)c1	inconclusive: 79.4 µM [inhibitor, partial curve, poor fit]	–
COc1ccccc1NC(=O)CSc1nc2n[nH]c(C)c2c(=N)n1-c1ccccc1Cl	inconclusive: 39.8 µM [inhibitor, partial curve, poor fit]	–
CCn1cc(C(=O)NCCc2ccc(Cl)cc2)c(=O)c2cc(S(=O)(=O)N(C)C3CCCCC3)ccc21	–	inactive: -19.1%
O=S(=O)(c1ccc(C2CCCCC2)cc1)N1CCN(c2cc(Cl)ccc2Cl)CC1	–	inactive: -12.2%
CCCC1(c2ccccc2)NC(=O)N(CC(=O)N(C)Cc2c(F)cccc2Cl)C1=O (stereo not given)	–	inactive: -0.0188%
CCN1CCN(c2nc(C)nc3c2sc(=S)n3C)CC1	inconclusive: 89.1 µM [inhibitor, single point]	–
Cc1c(Cl)cccc1NC(=O)c1oc2ccc(S(=O)(=O)N3CCCCCC3)cc2c1C	–	inactive: -15.6%
CCOC(=O)c1ccc(OS(=O)(=O)c2ccccc2)c(OC)c1	–	inactive: 7.43%
CN=c1scc(-c2ccc(F)cc2)n1/N=C/c1ccc(O)c(O)c1	–	inactive: -12.2%
COc1cccc(/C=C2/Sc3ccc(C(=O)NCCN4CCCCCC4)cc3NC2=O)c1	active: 50.1 µM	–
O=C(O)c1ccc2c3c(cccc13)C(=O)N(OS(=O)(=O)c1ccccc1)C2=O	inconclusive: 25.1 µM [inhibitor, full curve, poor fit]	–
C/C(N)=C(/C#N)C(=O)CSc1nnc(Nc2cccc(C)c2)s1	inconclusive: 89.1 µM [inhibitor, single point]	–
[O-][n+]1c2ccccc2[n+]([O-])c2cc(O)ccc21	inconclusive: 56.2 µM [inhibitor, partial curve]	–
O=C(Nc1ccc(Cl)cc1)c1cnn2c1NC(c1ccccc1)=CC2c1ccccc1 (stereo not given)	inconclusive: 35.5 µM [inhibitor, partial curve, poor fit]	–
O=C(c1c(O)cc(O)cc1O)C1c2c(cc(O)c3c2O[C@H](c2ccc(O)cc2)[C@@H](O)C3)OC1c1ccc(O)cc1 (stereo not given in full)	inconclusive: 50.1 µM [inhibitor, partial curve]	–
